Data reported in the supplement of paper PMC11417369.
The other results are listed elsewhere or left out.

tested on: PfHDP1 homeodomain (GST-tagged); experiment: gcPBM binding intensity (ln(normalized median fluorescence intensity)); higher = stronger DNA binding
How it was run: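 Binding intensity is defined as the maximum Masliner-normalised natural-log median intensity across replicate spots for either probe orientation. It was measured on an Agilent 4 × 180k array of primer-extended double-stranded 36-bp intergenic genomic probes and negative controls, to which GST-tagged P. falciparum DNA-binding domains made in E. coli were applied for 1 h in 1× PBS with 1% milk, 0.2 mg/ml BSA, 0.5% salmon testes DNA and 0.03% Triton X-100. Detection was by Alexa488 anti-GST antibody and scanning at 488 nm.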

| Sequence | gcPBM binding intensity (ln) |
| --- | --- |
| AGTAGTCTGGAGAAAAGTACATAGTATCTGGTAGCT [XGTACX_site2027] | 6.41 |
| CTTATATTAAGTATTACACACATATATATAAATGCA [CACACA_site4581] | 6.47 |
| CCTAAATAAATGGACACACACATATATATATATATA [CACACA_site1439] | 9.37 |
| TAGAAATAAGAAAAATGTACATATAATATTGAAAGT [XGTACX_site3043] | 7.3 |
| TATATATATATAAGAAGTACAGAAAATTAGAAAAAA [XGTACX_site8773] | 8.65 |
| TTTTACGTAATATTTATACACACGAACCTTATTAAT [CACACA_site2300] | 6.61 |
| AATATCTTAGTGGATACACACATATAAATGGGTATT [CACACA_site4426] | 6.35 |
| TCATATGTTAAACACACACACACACCGAAAAAAACA [CACACA_site9067] | 6.88 |
| AAAAAATTAAAAAAAAAAAAATCATGAAAAAAACAA [CACACA_negctrl_site1673] | 6.37 |
| TTTATTGATAATATATATATATATATATATATATAT [GTGCAC_negctrl_site552] | 9.39 |
| AGAACATGCAAACATGCACACAGAAAAAAAAAATAT [CACACA_site8442] | 9.36 |
| GTTTTATTCCATTATTGTACTTAATATAAAGAAACT [XGTACX_site3054] | 6.61 |
| ATAATAATATGTGGGTGTACATATACACATATATAT [XGTACX_site4356] | 6.96 |
| AGAAAAATCTAAATTCGTACATAACGTTTAAACATA [XGTACX_site2511] | 6.12 |
| AGGATATAAAGTTGTGCATGTCAAGTGCACCGTATT [TGCATGCA_site451] | 10.2 |
| GATGTGTATATTAAATGTACGAACAGTTGAGGCGAA [XGTACX_site7853] | 7.44 |
| ATGTTACACAGACACACACACATAAAAAAACAAAAA [CACACA_site7516] | 7.17 |
| TTTTTAAAAAATAAGAAAAAATAAATATATTACAAA [XGTACX_negctrl_site191] | 6.58 |
| CAGCATGGTATACCTATAAAATATATATACTAACAT [TGCATGCA_negctrl_site51] | 6.57 |
| CACATACATATATATACACACAAATATATATACGCA [CACACA_site791] | 6.92 |
| GGCATATATACATATGGTACACATTTATTAATACCG [XGTACX_site2710] | 6.27 |
| ATACTAAAAATGAATGTACACATATATATATATATA [TGCATGCA_negctrl_site209] | 9.26 |
| AAAAAAAATAAAAATAGTACCCAAAAAATTATGAAT [XGTACX_site6641] | 6.44 |
| TATAATAAAATATTTTGTACGTATATTTTAATATTT [XGTACX_site2582] | 6.29 |
| TTTTTATAAAAATGAACACACACATATATATATATA [CACACA_site9160] | 9.22 |
| AATAACACTATTTAACGTACAAAAAAAAAAAAGAAA [XGTACX_site3721] | 6.4 |
| AAAAAATATAATAATTGTACACATGCACACACAAAT [XGTACX_site1563] | 8.65 |
| TTTCATATCTTGTCAAGTACATATTTTTATTTTCTT [XGTACX_site2160] | 6.2 |

| Sequence | gcPBM binding intensity (ln) |
| --- | --- |
| ACTTAATATCGGTACACACACAAGATAAGAATTATG [CACACA_site894] | 6.62 |
| AATTAATAAATATTATATGTTAATATTTTTTTTGTT [CACACA_negctrl_site1692] | 5.93 |
| AGAGGAGTAAAACAAAACAAAGAGAAATAAACACAC [XGTACX_negctrl_site386] | 7.5 |
| CACAGACACGGACACACACACACAAAAAAAAAAAGA [CACACA_site4436] | 6.8 |
| TATTTTCTTTAATTAATTATTGGTCTGAATGGGGTT [CACACA_negctrl_site418] | 6.82 |
| TATTAAAAAAATATTTGTACTTAAAATTTATTATAT [XGTACX_site1467] | 6.08 |
| AAAAAGGAAATAATAACACACATTAGTAATTATAAA [CACACA_site7573] | 6.23 |
| ACAAAAAAAAAAAAAAAAAGAAGAATATATCTATAT [CACACA_negctrl_site759] | 6.12 |
| TATCATACAATATTCACACAAATAAATTGACATATT [CACACA_site5891] | 6.53 |
| AATTGTATGTATGCCTGTACATATGTCTATCTTAAG [XGTACX_site1927] | 6.14 |
| TATTTTATATGAGGCACACAAATTTTAATTGTTATT [CACACA_site725] | 5.99 |
| ATTTATTTATTTTTTTGTACTTATAATTTTTATTAT [XGTACX_site2656] | 6.59 |
| AGGAATATCGAAAACTGTACTTGTATGTTTCATAAA [XGTACX_site6143] | 6.06 |
| TATAAAAATAATATTACACACATGTAAAATGGGGGT [CACACA_site9071] | 7.03 |
| ATACACTTAATATTATGTACATATATAAAAAAAATA [XGTACX_site1500] | 6.6 |
| TATATTTAAATTCTTTCAAATCATGTTGTAATTTTT [CACACA_negctrl_site1349] | 6.3 |
| CATAAAAATGGATACACACACATAATATATTTATAT [CACACA_site7669] | 6.67 |
| ACAATATATTCATATTGTACATAAAATAAGGCTAAC [XGTACX_site6728] | 6.83 |
| TTTTCAGAAAAGAGAAACTTTATTTTTCACAACCGA [TGCATGCA_negctrl_site389] | 6.18 |
| ATTTTTTATGAAAATAAACACACGATTTATTATATA [CACACA_site1312] | 6.11 |
| TGTAGTCATTAGTCAAATTAGAATTAAATATATATT [GTGCAC_negctrl_site643] | 6.17 |
| TAAAAAATTATTAAACGTACGAGACTTTTTATCAGT [XGTACX_site2219] | 6.4 |
| TCTTTTTTAATATAATATATTTTTATTAAGTAAATC [TGCATGCA_negctrl_site408] | 6.2 |
| TAAATTTATGGACACACACACATATATATATATATA [CACACA_site4620] | 9.3 |
| TATTTATCTATATATTGTACTTATTAGTCTTAATGT [XGTACX_site4242] | 6.47 |
| AAATTTTAATTAGGAACACACATATATATATATATA [CACACA_site5673] | 9.27 |
| TTATATATAGATCACACACACACACCGGTTTTAAAA [CACACA_site4220] | 6.77 |
